Source: article PMC4336329 (PLoS ONE, 2015)
Hit rate of the full screen: of about 310,000 compounds, about 2,200 (0.71%) showed an effect of 50% or more. The effect is printed as a negative number. This is one part of the list.

Target: human ether-à-go-go-related gene (hERG) potassium channel (human, UniProt Q12809)
Test: primary screen, population patch clamp on CHO cells stably expressing hERG

human ether-à-go-go-related gene (hERG) potassium channel, sequence (Q12809 whole entry, looked up): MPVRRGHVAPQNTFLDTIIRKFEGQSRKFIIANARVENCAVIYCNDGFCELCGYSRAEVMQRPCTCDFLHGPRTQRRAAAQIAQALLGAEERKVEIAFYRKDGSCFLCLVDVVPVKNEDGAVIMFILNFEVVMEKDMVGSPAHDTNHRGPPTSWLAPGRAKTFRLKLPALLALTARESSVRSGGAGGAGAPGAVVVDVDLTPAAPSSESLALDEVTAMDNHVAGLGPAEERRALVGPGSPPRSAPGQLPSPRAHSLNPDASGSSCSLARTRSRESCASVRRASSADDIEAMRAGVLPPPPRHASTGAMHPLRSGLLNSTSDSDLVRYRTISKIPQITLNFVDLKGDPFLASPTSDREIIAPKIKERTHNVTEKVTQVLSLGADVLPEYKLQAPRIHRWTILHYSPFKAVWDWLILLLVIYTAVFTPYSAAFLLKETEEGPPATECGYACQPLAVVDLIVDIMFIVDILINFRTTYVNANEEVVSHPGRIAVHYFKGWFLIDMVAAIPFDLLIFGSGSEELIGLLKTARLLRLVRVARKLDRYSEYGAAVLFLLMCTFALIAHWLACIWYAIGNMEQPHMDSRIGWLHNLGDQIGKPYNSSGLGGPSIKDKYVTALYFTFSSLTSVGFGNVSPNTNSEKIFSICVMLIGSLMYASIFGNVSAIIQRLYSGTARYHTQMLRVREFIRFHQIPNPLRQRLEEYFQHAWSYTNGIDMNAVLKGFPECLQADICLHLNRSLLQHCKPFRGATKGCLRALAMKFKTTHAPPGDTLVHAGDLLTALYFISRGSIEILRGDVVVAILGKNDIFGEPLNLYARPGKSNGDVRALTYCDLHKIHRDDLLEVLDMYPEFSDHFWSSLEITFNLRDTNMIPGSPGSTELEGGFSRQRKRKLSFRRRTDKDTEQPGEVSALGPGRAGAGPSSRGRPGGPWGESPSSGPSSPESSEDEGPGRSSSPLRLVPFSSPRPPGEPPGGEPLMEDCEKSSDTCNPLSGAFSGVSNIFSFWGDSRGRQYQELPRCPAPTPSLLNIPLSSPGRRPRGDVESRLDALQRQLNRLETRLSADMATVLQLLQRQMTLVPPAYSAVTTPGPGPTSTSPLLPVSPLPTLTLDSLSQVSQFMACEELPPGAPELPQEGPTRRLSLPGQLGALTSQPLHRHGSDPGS

SMILES	hERG current change (%, negative = inhibition) at 1uM [%]
O=C(CNS(=O)(=O)c1ccc(Br)s1)N1CCN(c2ccc(F)cc2)CC1	-1.3
COC(=O)C1CCN(c2ccc(Cl)nn2)CC1	16.3
CC(C)(C)NC(=S)NNC(=O)c1ccncc1	4.78
COCCNC(=O)CSc1nnc2c(Cl)cc(Cl)cn12	-3.91
S=C(NNc1ccnc2cc(Cl)ccc12)Nc1ccc(Cl)cc1Cl	19.7
Cc1ccc(CNC(=O)C2CC(=O)N(C3CCCCCC3)C2)cc1 (stereo not shown)	9.48
CC(C)(C)Sc1nc(O)cc(=O)[nH]1	-6.96
NS(=O)(=O)c1ccc(NC(=S)NC2CCCCC2)cc1	12.9
Cc1cs/c(=N/C(=S)Nc2ccccc2)n1C	36.5
Cc1ccc(CSc2nnc(-c3cccc(S(=O)(=O)N4CCOCC4)c3)n2CC(C)C)cc1	-5.39
CN(C)CCNC(=O)CN1C(=O)COc2ccc(C(C)(C)C)cc21	6.42
Cc1cc(C)cc(N(CCC#N)C(=O)COC(=O)c2ccccc2SCC(=O)N2CCCC2)c1	-1.61
Cc1ccc2nc(SCC(=O)Nc3c(F)cccc3F)[nH]c2c1	0.495
O=C(O)c1ccc(NS(=O)(=O)c2ccc(N3CCCC3)c([N+](=O)[O-])c2)cc1	12.9
O=C(NCc1csc(-c2cccs2)n1)C1CCCCC1	4.73
O=C(COc1ccc(-c2ccccc2)cc1)NNC(=O)Nc1ccc(F)cc1F	17.9
COc1ccc(Br)c(OC)c1C(=O)NC(=O)Nc1c(F)cccc1F	8.43
O=Cc1ccc(C(=O)OCC(=O)NCCC2=CCCCC2)cc1	-2.71
CN(C)C(N)=NCCC[C@H](N)C(=O)O.Cl	14.8
CN(C)C=Nc1nc2ccccc2nc1N1CCCC1	8.7

SMILES	hERG current change (%, negative = inhibition) at 1uM [%]
CSc1ccc(S(=O)(=O)NCC(=O)OCC(=O)N(C)Cc2ccccc2)cc1[N+](=O)[O-]	10.3
CCOc1ccc(NS(=O)(=O)c2ccc(C(=O)NCc3ccccn3)cc2)cc1	2.6
O=C1CCCC2=C1C1(CCCCC1)N=C(Nc1nc3ccccc3o1)N2	6.53
Cc1ccc2[nH]cc(C(=O)CN3CCN(C)CC3)c2c1	6.76
CCc1cc(=O)oc2c3c(cc(OCC(=O)NCc4ccco4)c12)OC(C)(C)CC3	-4.95
Cc1oc(-c2cccc(Cl)c2)nc1CS(=O)(=O)CC(=O)NCCN1CCCC1	11.8
CN(Cc1ccccc1)C1=CC(=[N+]2CCCCC2)CC(C)(C)C1.[I-]	-9.29
O=C1NC(=O)N(Cc2ccc(F)cc2)C(=O)/C1=C/c1cccs1	15.8
O=Cc1c(Cl)cccc1Cl	12.8
CCOC(=O)c1[nH]c2ccc(F)cc2c1N=C(C)N(CC)CC	-25.9
O=C(NCc1ccco1)C1CC(=O)N(CCc2ccccc2)C1 (stereo not shown)	13.5
O=C(NC1CC1)c1cccc(Nc2ccc(-c3ccc4c(c3)OCCO4)nn2)c1	2.92
COC(=O)CC1C(=O)NCCN1C(=O)CSc1nc2cc(Cl)ccc2o1 (stereo not shown)	8.71
CCCCNC(=S)N(C)/N=C/c1ccc2c(c1)OCO2	12.7
Cc1ccc(S(=O)(=O)N(C)c2ccc(C(=O)Nc3ccccn3)cc2)cc1	19.4
COC(=O)C1CC(=O)c2sccc2C1 (stereo not shown)	11.2
Cc1ccc(O)c(C(=O)c2cnc3c(c2)CN(C)C(=O)N3)c1	9.48
Cc1ccc(CNC(=O)CCC(=O)Nc2nnc(C3CCCCC3)s2)cc1	11.6
CCOC(=O)Cc1nc(-c2cccc(C(F)(F)F)c2)no1	3.32
C[C@@H](C[C@@H](O)[C@H](O)C(C)(C)O)[C@@H]1CC[C@]2(C)C3=CC[C@H]4C(C)(C)C(=O)CC[C@]4(C)[C@H]3CC[C@@]12C	14.2

SMILES	hERG current change (%, negative = inhibition) at 1uM [%]
COC(=O)c1ccccc1S(=O)(=O)N1CCC(C(=O)NCc2ccco2)CC1	4.79
Cc1ccc(C2CC(c3cccc(C)c3)n3nc(N)nc3N2)cc1 (stereo not shown)	-10.1
CCCCCOc1ccc(NC(=O)C2OC3OC(C)(C)OC3C3OC(C)(C)OC23)cc1 (stereo not shown)	8.45
COc1ccc(C2=NS(=O)(=O)N(C)C(C(=O)Nc3ccc4c(c3)OCO4)=C2)cc1OC	15.9
O=[N+]([O-])c1ccc(CN2CC=C(c3ccccc3)CC2)cc1	7.24
C=CCn1c(SCC(=O)NCc2ccc3c(c2)OCO3)nc2scc(-c3ccccc3)c2c1=O	7.85
O=C(NCc1ccc(F)cc1)c1cnn2ccccc12	12.4
CS(=O)(=O)c1ccc2nc(NC(=O)c3cc4ccccc4o3)sc2c1	4.97
Cc1cc(C)nc(NC(=O)c2cc(-c3ccc(C)s3)nc3ccccc23)c1	9.29
COc1cccc(C(=O)NNS(=O)(=O)c2ccc(F)cc2)c1	14.2
O=C(Cc1ccc2c(c1)CCCC2)Nc1ccccc1Cl	7.42
CCOc1ccc(Cl)cc1S(=O)(=O)N1CCCC1	2.73
COc1ccc(-n2c(=O)cc(N3CCN(c4ccccc4OC)CC3)[nH]c2=O)cc1	5.29
Cc1ccc(C(=O)N2c3ccccc3N(Cc3ccccc3)C(=O)C2(C)C)cc1	4.69
N#C/C(=C\c1c[nH]c2ccccc12)C(=O)NC1CCCC1	6.43
CC(=O)C1=C(C)NC(=O)NC1c1cccs1 (stereo not shown)	18.6
Cc1nn(Cc2ccccc2Cl)c(C)c1C(=O)NC1=NCCS1	15.5
COCCN(C(=O)c1csnn1)C(C(=O)NC1CCCCC1)c1ccc(C)cc1 (stereo not shown)	6.61
